About 14,000 (4.5%) of roughly 310,000 compounds showed an effect of 50% or more. Effects have a minus sign here. The list shows a part of the results.
Biological target: human ether-à-go-go-related gene (hERG) potassium channel (human, UniProt Q12809)
Assay: primary screen, population patch clamp on CHO cells stably expressing hERG
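Note: peak tail current of the secondary pulse compared with the same well before compound.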

human ether-à-go-go-related gene (hERG) potassium channel, sequence (Q12809 whole entry, looked up): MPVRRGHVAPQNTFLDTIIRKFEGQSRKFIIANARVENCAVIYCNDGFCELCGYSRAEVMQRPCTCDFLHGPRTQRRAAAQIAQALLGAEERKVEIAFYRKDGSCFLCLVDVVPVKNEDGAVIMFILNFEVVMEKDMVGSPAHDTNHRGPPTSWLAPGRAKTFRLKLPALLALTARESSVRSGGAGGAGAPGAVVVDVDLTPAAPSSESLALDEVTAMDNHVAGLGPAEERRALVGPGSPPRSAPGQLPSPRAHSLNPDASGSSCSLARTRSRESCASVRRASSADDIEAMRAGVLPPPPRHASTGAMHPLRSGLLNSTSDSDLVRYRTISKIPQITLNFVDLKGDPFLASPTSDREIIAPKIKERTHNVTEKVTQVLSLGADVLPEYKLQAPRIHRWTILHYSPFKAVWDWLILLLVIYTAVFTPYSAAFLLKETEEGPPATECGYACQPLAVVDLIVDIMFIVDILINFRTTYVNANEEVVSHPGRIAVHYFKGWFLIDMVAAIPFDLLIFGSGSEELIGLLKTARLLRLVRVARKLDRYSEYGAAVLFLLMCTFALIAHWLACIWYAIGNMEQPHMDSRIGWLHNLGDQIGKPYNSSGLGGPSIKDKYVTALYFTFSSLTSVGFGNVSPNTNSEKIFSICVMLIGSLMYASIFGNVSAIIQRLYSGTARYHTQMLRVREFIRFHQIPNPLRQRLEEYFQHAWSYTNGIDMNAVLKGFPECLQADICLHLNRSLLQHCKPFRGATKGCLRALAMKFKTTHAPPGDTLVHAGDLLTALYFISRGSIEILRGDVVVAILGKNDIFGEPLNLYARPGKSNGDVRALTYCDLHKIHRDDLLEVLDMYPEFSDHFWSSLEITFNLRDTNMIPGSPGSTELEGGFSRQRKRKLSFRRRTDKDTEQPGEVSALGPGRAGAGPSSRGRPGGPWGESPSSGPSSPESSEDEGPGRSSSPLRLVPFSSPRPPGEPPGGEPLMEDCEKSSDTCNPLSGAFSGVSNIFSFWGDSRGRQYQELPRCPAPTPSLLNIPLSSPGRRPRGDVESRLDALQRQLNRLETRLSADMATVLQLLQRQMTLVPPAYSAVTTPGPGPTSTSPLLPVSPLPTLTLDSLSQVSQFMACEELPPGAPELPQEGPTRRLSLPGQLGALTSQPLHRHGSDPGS

SMILES	hERG current change (%, negative = inhibition) at 10uM [%]
CN1CCC(OC(=O)c2cccc(Cl)c2)CC1.Cl	-8.64
COc1cc(OC)cc(C(=O)N[C@H](C(=O)NCc2ccc(F)cc2)C(C)C)c1	-2.58
CC(C)OC(=O)Cc1nc2sc(-c3ccccc3)cc2c(=O)[nH]1	15.7
O=C(O)C(c1ccccc1)N1C(=O)c2cccc3cccc(c23)C1=O (stereo not shown)	5.72
O=C(/C=C/c1ccccc1)NNC(=O)c1cccnc1	18.9
Cc1c(Cc2ccccc2)c(=O)oc2cc(OCC(=O)N[C@@H](Cc3ccccc3)C(=O)O)ccc12	-1.27
O=C(NCc1ccco1)c1ccc2ccccc2n1	4.89
C=CCc1cc(C(=O)N2CCCCC2)ccc1O	15.1
Cc1ccc(S(=O)(=O)NCC(=O)N/N=C/c2ccc(Cl)cc2)cc1	-3.55
O=c1c2sccc2n(Cc2ccc(F)cc2)c(=O)n1-c1ccc(F)cc1	8.94
O=C(CN1C(=O)/C(=C/c2ccccc2)SC1=S)N1CCN(CCc2ccccn2)CC1	-15.7
CCn1cc(C(=O)NC2CCCCCC2)c(=O)c2ccc(C)nc21	-4.88
CN(C(=O)COC(=O)/C=C/c1cccc([N+](=O)[O-])c1)C1CCS(=O)(=O)C1 (stereo not shown)	18.7
COc1ccc(-c2csc(NC(=O)C3CCCCN3S(=O)(=O)c3ccccc3)n2)cc1 (stereo not shown)	-1.79
CCC1CCCCN1CCCNC(=O)c1ccc2c(c1)N(Cc1c(F)cccc1Cl)C(=O)CS2 (stereo not shown)	-7.86
CCN(CC)CCCN1C=C2C(=O)C(C)(OC(=O)C3CCCC3)C(=O)C=C2C=C1c1ccsc1 (stereo not shown)	-34.3
C#CCOCCOCCOCCNc1nc(N2CCOCC2)nc(N2CCN(C(=O)[C@H]([C@@H](C)CC)n3cc(CCCC[NH3+])nn3)CC2)n1.[Cl-]	13.6
COc1cccc(CN2CCN(Cc3ccc(OC)c(OC)c3)CC2CCO)c1 (stereo not shown)	-27.2
CCOc1cc(/C=N/NC(=O)c2c(-c3ccccc3)noc2C)ccc1O	3.14
NC(=O)C1CCN(/C=C2\C(=O)NC(=O)N(Cc3ccco3)C2=O)CC1	6.74
COC(=O)c1c(NC(C)=O)sc(C(=O)Nc2ccccc2)c1C	52.7
CC(=O)COC(=O)c1ccc2noc(-c3ccccc3)c2c1	-6.51
O=C(CSc1nnc(CNc2ccc(F)cc2)n1Cc1ccco1)N1CCOCC1	-31
O=C(N/N=C/c1c(F)cccc1Cl)C1CC1	13.4
CN(C(=O)Cn1nc(C(=O)O)c2ccccc2c1=O)C1(C#N)CCCCC1	7.82
CC(C)(CNC(=O)Cc1ccc(Br)cc1)N1CCOCC1	8.38
C=CCNC(=O)CN1CCC(NC(=O)c2ccco2)CC1	5.89
CCCCCC(=O)Nc1ccc(-c2csc(C)n2)cc1	18.7

SMILES	hERG current change (%, negative = inhibition) at 10uM [%]
CC1(C)CN(c2ccccc2)N(C(=O)c2ccc(C#N)cc2)C1=O	-16.8
CC(C)CC(=O)NC(=S)Nc1sc2c(c1C(N)=O)CCC2	15.7
CCCCC/C=C/C1=CC(=O)C[C@H](c2ccc(OC)c(OC)c2)C1	10.8
CC1=NN(c2ccc(C)cc2C)C(=O)C1C(c1ccccc1O)C1C(=O)N(c2ccc(C)cc2C)N=C1C (stereo not shown)	13.2
CCOc1ccc(S(=O)(=O)NCc2ccccn2)cc1NC(=O)c1ccccc1F	15.1
CCO[C@H]1OC(C(=O)N2CCN(C)CC2)=C[C@@H](c2ccc3c(c2)OCO3)[C@@H]1CCCO	3.93
O=C(O)CC(c1ccc(Cl)cc1)n1cccc1 (stereo not shown)	5.89
COc1ccc(/C=C/C(=O)N(CC(C)C)C2CCS(=O)(=O)C2)cc1 (stereo not shown)	1.7
O=C(N/N=C/c1ccc(O)cc1)c1cc(-c2ccccc2)nc2ccccc12	11.2
CCCCCC(=O)OC(CN1CCCCC1)CN1CCCC1=O.Cl (stereo not shown)	5.42
COc1cc2ncnc(NCc3ccc(C)o3)c2cc1OC	-11.5
Cc1cc(C(=O)OCC(=O)N2CCOCC2)ccc1[N+](=O)[O-]	17.7
CC(C)(C)SCCNC(=O)COc1ccccc1	-0.00422
COc1ccc(C(=O)NNC(=S)NC(=O)c2cccnc2)cc1	2.49
CCN(CC)c1ccc(/C=N/NC(=O)OC(C)(C)C)cc1	-22.6
Cn1c(=O)c2c(nc(CN3CCN(Cc4ccccc4)CC3)n2CCN2CCOCC2)n(C)c1=O	-17.6
CCc1cc(=O)oc2cc(C)cc(OCC(=O)NC3CCN(Cc4ccccc4)CC3)c12	-36
Cc1ccccc1NC(=O)N1C2CCCC1CC(NC(=O)C1CC1)C2 (stereo not shown)	10
O=S(=O)(NCC(c1cccnc1)N1CCN(Cc2ccccc2)CC1)c1ccc(Cl)cc1 (stereo not shown)	-78.3
O=C(COC(=O)c1cc(=O)c2ccccc2o1)NC1CCCCC1	17.9
COc1ccc(/C=C/C(=O)Oc2cc(O)cc(O)c2)cc1	15.2
CCCOc1ccc(C2C(C(=O)c3ccc(C)o3)=C(O)C(=O)N2Cc2cccnc2)cc1 (stereo not shown)	12.9
CCCCOc1ccc(C(=O)NCC(=O)NCC(c2cccs2)N2CCOCC2)cc1 (stereo not shown)	-22.6
CCOC(=O)C1=C(C)N=c2s/c(=C\c3ccc(O)c([N+](=O)[O-])c3)c(=O)n2C1c1ccccc1OC (stereo not shown)	-61.7
Cc1nc(-c2ccc(S(=O)(=O)Oc3ccc(Cl)cc3Cl)s2)cs1	9.25
CC(=O)c1ccc(OCCCCCCCOc2ccc(C(C)=O)cc2)cc1	26.3
CCn1nnc(-c2ccccc2NC(=O)c2cnccn2)n1	-0.711
